Results published in the supplement of paper PMC3334620.
Over roughly 33,000 sequences, “E-score (-0.5 to 0.5)” has its median near -0.032; the highest 2% begin near 0.36. This is one part of the list.

target: T1, Sko1 (UniProt Q02100); experiment: PBM E-score (8-mer binding enrichment) (E-score (-0.5 to 0.5)); higher = stronger / more preferred TF binding; most listed sequences are background and not binding sites; conditions: protein concentration: 200 nM; construct: GST-full length
T1 sequence: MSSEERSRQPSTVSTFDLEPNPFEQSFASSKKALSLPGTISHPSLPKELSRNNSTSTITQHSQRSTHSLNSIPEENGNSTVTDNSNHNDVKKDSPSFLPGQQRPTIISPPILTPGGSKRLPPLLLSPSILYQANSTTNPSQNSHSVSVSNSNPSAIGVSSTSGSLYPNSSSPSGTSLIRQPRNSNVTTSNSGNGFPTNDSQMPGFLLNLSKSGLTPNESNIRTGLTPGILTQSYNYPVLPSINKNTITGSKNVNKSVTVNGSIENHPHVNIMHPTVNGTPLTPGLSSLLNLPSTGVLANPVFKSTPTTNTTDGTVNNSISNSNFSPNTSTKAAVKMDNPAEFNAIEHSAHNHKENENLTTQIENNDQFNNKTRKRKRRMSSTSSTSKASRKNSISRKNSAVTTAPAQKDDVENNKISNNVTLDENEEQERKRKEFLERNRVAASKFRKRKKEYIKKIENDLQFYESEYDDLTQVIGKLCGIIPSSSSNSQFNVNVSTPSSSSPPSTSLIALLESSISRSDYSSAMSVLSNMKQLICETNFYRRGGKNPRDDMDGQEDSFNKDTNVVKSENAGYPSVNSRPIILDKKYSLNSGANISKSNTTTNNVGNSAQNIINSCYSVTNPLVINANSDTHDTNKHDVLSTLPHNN
How it was run: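 The E-score, a modified Wilcoxon-Mann-Whitney statistic, was computed by the Universal PBM Analysis Suite for every ungapped eight-base word pooled with its reverse complement. Scans behind it were normalised with masliner after bound GST-tagged yeast transcription factors were detected with fluorescent anti-GST. The proteins, at about 100-200 nM, had been applied to universal all-10-mer Agilent arrays made double-stranded by primer extension.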

Sequence	PBM E-score
CTTGCTTA	-0.192
ATCCACCA	-0.0843
CAAGAGCA	-0.0878
CCACGCAA	0.308
GAAAAGGC	-0.204
TACACCGA	-0.177
AACCCGGT	-0.265
ATATGCCA	-0.0891
TCAACAAA	0.143
AACACATA	0.256
GTGCCTGA	-0.141
ACACGGTA	-0.0135
ACAACGGT	-0.0571
AAACGATG	0.192
ATATGGGC	-0.0462
TAGCTGCA	-0.0592
CCACCGAC	-0.175
AATCCTGC	0.0867
TACAGATA	0.181
AAAGAGAT	0.0423
AGAATGAA	0.113
TAGTTGGA	-0.0545
TCGGCTAA	0.0996
AGACGGTA	-0.0761
AACCCGTT	-0.139

Sequence	PBM E-score
GCTCAGAC	-0.152
ACTCGAGT	0.0932
CACCCAGC	-0.168
AAAACGGG	0.026
AGGCAGCC	-0.208
AATTGGGG	-0.167
GAAGCTCA	-0.0454
CGCCTCCC	-0.0668
ACTACAGG	-0.116
CAGAGGGC	-0.226
ACTCGGAC	-0.131
ATGACGAA	0.488
CTACCAGC	-0.103
ACTAAGCT	0.0583
AGACTGCC	-0.103
CACCACCG	-0.248
CCGTGGGC	-0.0933
AGCCAGTC	-0.286
AGAAGCGG	-0.328
AGTATGAA	0.0617
AGTTTGAG	-0.148
GCAGTCGC	-0.164
GGCCGTGA	-0.129
ATAGGGGA	-0.197
ATATCATA	0.307

Sequence	PBM E-score
ATATGCGC	0.0277
GACGTTGC	0.313
ATGAGGCA	-0.0537
CTTATAGC	-0.0113
CATCCAAC	0.164
AGGTACCC	-0.292
AAGTCCCC	-0.279
CATAGTAG	-0.0634
CTATGAGC	-0.121
TAGCTAGA	0.00313
AAGTACGG	-0.0995
AACCCGGG	-0.241
GAGGGTGA	-0.175
CGGCACCG	-0.247
AATGCCGC	-0.268
CACGACTC	0.0715
GAACAACC	-0.0935
CAAACTTG	-0.0458
CAATGCTC	0.0911
ATTGTAAG	-0.0531
GGATCTGA	-0.128
ACCCTGAC	-0.246
ATTCGTCA	0.464
AGTATCTA	0.138
CCTTAGGC	-0.187

Sequence	PBM E-score
AGTGTGCG	-0.0849
ACGATTCC	0.0509
ATGGTGTC	-0.0613
ATGGTATC	0.0937
GTTATTGA	0.169
CAATGGGA	-0.177
CGCCTAGA	-0.122
CATAGGCA	-0.0947
GGGAAGTA	-0.132
TCCCCGAA	-0.293
GGTCCTAA	-0.00481
ACGACTCA	0.0692
CAATCGCA	0.0114
CCGCTGTA	-0.226
CGCCCACG	-0.0731
GACGCATC	0.184
GTCACTTA	0.286
ATGGGCCG	-0.279
TTAATTAA	0.0598
AAGATTAT	0.0805
AATTTAGA	0.202
GATTATTA	0.149
CCGGGTCC	-0.333
TAATACAA	0.181
GTTGCAGA	-0.0108

Sequence	PBM E-score
TTCTACAA	0.063
TCCCTTAA	-0.0451
TAGGTATA	0.105
GAATGGAC	0.0685
CCGTATTA	0.152
AAATATGC	-0.00723
AAATCCCA	-0.0596
CCAACCGC	-0.0986
TCCGCCCA	-0.168
GGTGGCTA	-0.152
TCAAGTAA	0.197
CTTAAATC	0.158
GCGTTCAA	0.0896
ATAAGCCG	-0.187
CTCGTTCA	-0.0308
CCTAAAAA	0.0683
TGGCAAAA	0.0855
CCAGTTAC	-0.151
ATCCCAGG	-0.305
ACGAAGTG	0.171
ATTTGTGG	0.0449
ACAATTAT	0.245
ACCAGACT	-0.143
ATCAACTG	-0.0317
ACAGCCTA	-0.0248

Sequence	PBM E-score
GCCGTTAA	-0.111
AAGAGGTC	-0.144
CTTTGCAC	0.0348
ACATAGCG	0.0139
GCATCCTA	-0.0847
CAGGAGAC	-0.0473
CCCCTATC	-0.218
GAAGAGCC	-0.252
AGTCCGTA	-0.218
ATATAGTG	0.099
ACCGCACG	0.0615
ACTCGCAC	-0.0948
AATGTTCC	0.0293
CCCGTCGG	-0.0853
CAATTGCG	0.237
GTTCACTA	-0.0269
GCCCCAAC	-0.0431
AGGTCATC	0.22
AAAGGTTC	-0.115
TCAGTGCA	-0.0968
CTTGGTCC	-0.236
CACAACAG	-0.188
AGAATACG	0.304
AAGGGAAG	0.0269
CAGCAGGA	-0.147

Sequence	PBM E-score
AACCGGGA	-0.219
GAACACAC	-0.0651
CAATGGTC	-0.176
CAAATCCG	-0.027
AAGGTGTA	0.105
CACTGCCA	-0.0172
GCGACTAC	-0.14
ACAACTCC	-0.135
ACTGGCTG	-0.184
AAAGCATT	0.103
CCATGCAA	0.0552
GGGGGACC	-0.319
CGATCTAA	0.0385
AACCCAGT	-0.158
AGAAGTTC	-0.0839
CTGCTTCC	-0.269
CTATACGC	0.173
AATGCTCC	-0.241
AGCCTGGG	-0.168
CAACCTAG	-0.163
CAGTCCCA	-0.23
ATAATGGC	0.184
